{"source": "the BET-seq Pho4 binding data (Le et al. 2018)", "note": "This is one part of the list. Values were computed here from the reads of four pooled replicates and scatter widely.", "data": [{"target": "T1, Pho4 (S. cerevisiae) (UniProt P07270)", "T1 sequence": "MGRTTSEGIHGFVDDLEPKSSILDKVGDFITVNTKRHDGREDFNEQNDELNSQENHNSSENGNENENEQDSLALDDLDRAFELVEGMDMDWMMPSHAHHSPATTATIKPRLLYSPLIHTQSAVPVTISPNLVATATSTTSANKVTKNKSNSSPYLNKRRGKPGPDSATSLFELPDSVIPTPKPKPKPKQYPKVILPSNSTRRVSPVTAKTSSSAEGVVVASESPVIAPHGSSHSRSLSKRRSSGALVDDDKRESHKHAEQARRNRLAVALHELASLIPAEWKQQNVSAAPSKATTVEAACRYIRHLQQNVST", "test": "relative binding free energy (BET-seq); higher = weaker binding", "conditions": "reference: library average", "units": {"relative binding free energy": "kcal/mol"}, "values": [{"sequence": "ATTATCACGTGACTGG", "relative binding free energy": 0.35}, {"sequence": "TGGACCACGTGTTTGT", "relative binding free energy": 0.04}, {"sequence": "GGGTGCACGTGATAGT", "relative binding free energy": 0.19}, {"sequence": "ATATGCACGTGGGCGC", "relative binding free energy": -0.07}, {"sequence": "GGATGCACGTGTGAAA", "relative binding free energy": 0.03}, {"sequence": "GCTAGCACGTGGGAAG", "relative binding free energy": 0.04}, {"sequence": "GGTGTCACGTGTTATC", "relative binding free energy": -0.01}, {"sequence": "GATTTCACGTGTCTAG", "relative binding free energy": 0.32}, {"sequence": "TAGAGCACGTGTAAAT", "relative binding free energy": 0.03}, {"sequence": "AATGTCACGTGACGGG", "relative binding free energy": 0.18}, {"sequence": "CTTGGCACGTGGGCGT", "relative binding free energy": -0.3}, {"sequence": "GGGGCCACGTGGGAGT", "relative binding free energy": -0.2}, {"sequence": "CGTAGCACGTGGAATT", "relative binding free energy": 0.07}, {"sequence": "ATTCGCACGTGTTGGG", "relative binding free energy": -0.09}, {"sequence": "GATGCCACGTGCGGTT", "relative binding free energy": 0.06}, {"sequence": "CGTCTCACGTGGGGTG", "relative binding free energy": -0.11}, {"sequence": "GTAGCCACGTGGAGTA", "relative binding free energy": 0}, {"sequence": "CGTTACACGTGAGGTG", "relative binding free energy": 0.22}, {"sequence": "TGTGGCACGTGGCGGC", "relative binding free energy": -0.28}, {"sequence": "TGGTGCACGTGTACAG", "relative binding free energy": 0.01}, {"sequence": "GTTGACACGTGGTTAG", "relative binding free energy": 0.04}, {"sequence": "CTTATCACGTGGGTAT", "relative binding free energy": 0.01}, {"sequence": "ATTACCACGTGTGGTA", "relative binding free energy": 0.03}, {"sequence": "TCTCTCACGTGTTAGG", "relative binding free energy": 0.24}, {"sequence": "TTATGCACGTGTGTCT", "relative binding free energy": 0.12}, {"sequence": "GAGGACACGTGTTGAG", "relative binding free energy": -0.01}, {"sequence": "CTGTTCACGTGCTGGT", "relative binding free energy": 0.27}, {"sequence": "AAAAGCACGTGAGTCG", "relative binding free energy": 0.33}, {"sequence": "GGTCTCACGTGATTTT", "relative binding free energy": 0.38}, {"sequence": "ATGTTCACGTGGGGCG", "relative binding free energy": 0.16}, {"sequence": "AGGTCCACGTGATAGG", "relative binding free energy": -0.02}, {"sequence": "AGTGACACGTGGTGTG", "relative binding free energy": -0.11}, {"sequence": "GAGGTCACGTGCAGGG", "relative binding free energy": 0.18}, {"sequence": "TTGTGCACGTGTAGGG", "relative binding free energy": 0.11}, {"sequence": "CTAAGCACGTGGGCGT", "relative binding free energy": -0.12}, {"sequence": "TAGTGCACGTGTACGT", "relative binding free energy": -0.03}, {"sequence": "AGAGTCACGTGGGGCG", "relative binding free energy": 0.02}, {"sequence": "AGGAACACGTGCAGTG", "relative binding free energy": 0.07}, {"sequence": "TTCCTCACGTGTTGCT", "relative binding free energy": 0.46}, {"sequence": "GAGCTCACGTGTGGGA", "relative binding free energy": 0.31}, {"sequence": "GGGTACACGTGGCAGA", "relative binding free energy": 0.02}, {"sequence": "GGACGCACGTGGGGAA", "relative binding free energy": -0.13}, {"sequence": "TTTGGCACGTGTTGTC", "relative binding free energy": 0.02}, {"sequence": "CAGGGCACGTGGAGGC", "relative binding free energy": -0.05}, {"sequence": "TTCTTCACGTGCGGTG", "relative binding free energy": 0.28}, {"sequence": "TTTAGCACGTGGTTTG", "relative binding free energy": -0.08}, {"sequence": "ACATACACGTGGTGTT", "relative binding free energy": 0}, {"sequence": "ACAGTCACGTGGGCGG", "relative binding free energy": -0.09}, {"sequence": "GTTGACACGTGTCGTA", "relative binding free energy": -0.05}, {"sequence": "AAGCTCACGTGTAGTT", "relative binding free energy": 0.23}, {"sequence": "TTTTACACGTGTAATG", "relative binding free energy": 0.04}, {"sequence": "GGTGACACGTGTATGA", "relative binding free energy": 0.09}, {"sequence": "TTAGCCACGTGTTGGG", "relative binding free energy": -0.08}, {"sequence": "TTTAGCACGTGTGAAC", "relative binding free energy": 0.08}, {"sequence": "CAATTCACGTGAGGTG", "relative binding free energy": 0.55}, {"sequence": "CTTGACACGTGGAGTT", "relative binding free energy": -0.04}, {"sequence": "GGGAGCACGTGTTTCG", "relative binding free energy": -0.03}, {"sequence": "GGAGTCACGTGTTGTG", "relative binding free energy": 0.14}, {"sequence": "GGATACACGTGAGGGA", "relative binding free energy": 0.29}, {"sequence": "GGATACACGTGTTAGA", "relative binding free energy": 0.15}, {"sequence": "TCGTGCACGTGGAGTG", "relative binding free energy": 0.02}, {"sequence": "CGGGTCACGTGGTCGT", "relative binding free energy": -0.06}, {"sequence": "GGATCCACGTGATTGG", "relative binding free energy": 0.16}, {"sequence": "GCGCGCACGTGGGGTT", "relative binding free energy": -0.29}, {"sequence": "AGTGACACGTGAAATT", "relative binding free energy": 0.3}, {"sequence": "TTAGTCACGTGGGATA", "relative binding free energy": 0.08}, {"sequence": "AATTGCACGTGCGTGT", "relative binding free energy": -0.05}, {"sequence": "TAGGGCACGTGCGGTT", "relative binding free energy": -0.09}, {"sequence": "ATTGCCACGTGCGGGT", "relative binding free energy": -0.18}, {"sequence": "GGGGTCACGTGTTGTA", "relative binding free energy": 0.13}, {"sequence": "TGAGACACGTGGTCGG", "relative binding free energy": 0.03}, {"sequence": "GGGAGCACGTGAGTAA", "relative binding free energy": 0.22}, {"sequence": "GTGGGCACGTGCGTGC", "relative binding free energy": -0.08}, {"sequence": "TTTGTCACGTGACATA", "relative binding free energy": 0.26}, {"sequence": "ATGCTCACGTGGATTT", "relative binding free energy": 0.15}, {"sequence": "ACATGCACGTGAGGTG", "relative binding free energy": 0.04}, {"sequence": "ATTGGCACGTGAAATT", "relative binding free energy": 0.16}, {"sequence": "GTATACACGTGTGTTG", "relative binding free energy": 0.05}, {"sequence": "TAACACACGTGTTTAG", "relative binding free energy": 0.39}, {"sequence": "ATCGACACGTGTTTGG", "relative binding free energy": 0.03}, {"sequence": "TGATGCACGTGAGGAT", "relative binding free energy": 0.3}, {"sequence": "GAGATCACGTGAGGGT", "relative binding free energy": 0.33}, {"sequence": "AGTCACACGTGATGGT", "relative binding free energy": 0.24}, {"sequence": "TCGGTCACGTGAGATT", "relative binding free energy": 0.27}, {"sequence": "CTAGGCACGTGGCATG", "relative binding free energy": -0.22}, {"sequence": "GAGGTCACGTGTGTCT", "relative binding free energy": 0.26}, {"sequence": "TGTGGCACGTGCTTCT", "relative binding free energy": -0.23}, {"sequence": "TAGGCCACGTGTTTGA", "relative binding free energy": 0.03}, {"sequence": "TAGCGCACGTGTGGTA", "relative binding free energy": -0.01}, {"sequence": "TAGGGCACGTGGTTGT", "relative binding free energy": -0.14}, {"sequence": "TTAGGCACGTGCTGGT", "relative binding free energy": -0.28}, {"sequence": "GTATACACGTGAAGTG", "relative binding free energy": 0.22}, {"sequence": "GTTTGCACGTGAATTG", "relative binding free energy": 0.24}, {"sequence": "ACTGGCACGTGTTAGG", "relative binding free energy": -0.12}, {"sequence": "CGTTTCACGTGTTAGA", "relative binding free energy": 0.18}, {"sequence": "GGCGGCACGTGTAGGC", "relative binding free energy": -0.01}, {"sequence": "TGCATCACGTGTATGG", "relative binding free energy": 0.16}, {"sequence": "GTGTCCACGTGAGGGA", "relative binding free energy": 0.16}, {"sequence": "TAGTTCACGTGGCTTT", "relative binding free energy": 0.25}, {"sequence": "TAGTTCACGTGTAGAC", "relative binding free energy": 0.35}, {"sequence": "GATGGCACGTGGAGGG", "relative binding free energy": -0.02}, {"sequence": "TTTTACACGTGTGGTA", "relative binding free energy": 0.2}, {"sequence": "AGCTGCACGTGGGGGA", "relative binding free energy": -0.1}, {"sequence": "GGTGACACGTGGTTAC", "relative binding free energy": 0.12}, {"sequence": "TCTATCACGTGTGTAG", "relative binding free energy": 0.24}, {"sequence": "GGTCGCACGTGGATGA", "relative binding free energy": -0.04}, {"sequence": "GGCCGCACGTGTTGGT", "relative binding free energy": 0.01}, {"sequence": "ATGATCACGTGTGAAT", "relative binding free energy": 0.21}, {"sequence": "GTAATCACGTGGCGGG", "relative binding free energy": 0.21}, {"sequence": "GGTTGCACGTGCTAGG", "relative binding free energy": -0.08}, {"sequence": "TTTAGCACGTGTCATT", "relative binding free energy": -0.13}, {"sequence": "TTTGCCACGTGATATG", "relative binding free energy": 0.03}, {"sequence": "AGTACCACGTGGGGGA", "relative binding free energy": -0.14}, {"sequence": "AGTTCCACGTGGTGCT", "relative binding free energy": 0.02}, {"sequence": "GGGTACACGTGTCTGG", "relative binding free energy": 0.08}]}]}
